We go through 32 molecules from patent US20240124614A1.

Test [1] addresses ECM (extracellular matrix). Briefly: ECL plate assay on coated ECM (Matrigel).
Test [2] has as its target ECM (extracellular matrix). The test can be described thus: ECL plate assay on coated ECM (Matrigel), antibody 3 ug/mL, pH 7.4.
In test [3] the target is ECM (extracellular matrix). Briefly: ECL plate assay on coated ECM (Matrigel), antibody 3 ug/mL, pH 5.8.

Positions count from the first letter of the chain named.

B1: hT4VL.FRv40499 (antibody, human IgG1, kappa)
heavy: EVQLVESGGGLVQPGGSLRLSCAASGYTFTSYVMHWVRQAPGKGLEWVSAINPYNDGNYYADSVKGRFTISRDNSRKTLYLQMNSLRAEDTAVYYCARGAYKRGYAMDYWGQGTTVTVSSASTKGPSVFPLAPSSKSTSGGTAALGCLVKDYFPEPVTVSWNSGALTSGVHTFPAVLQSSGLYSLSSVVTVPSSSLGTQTYICNVNHKPSNTKVDKKV[human IgG1 Fc not given here]GSGGGSVTGYRLFEEIL
light: DLVMTQSPSSLSASVGDRVTITCKSSQSLFNSRTRKNYLAWYQQKPGKAPKLLIYWASTRESGVPARFSGSGSGTDFTLTISSLEPEDFAVYYCQQYYYEDYTFGQGTKVEIKRTVAAPSVFIFPPSDEQLKSGTASVVCLLNNFYPREAKVQWKVDNALQSGNSQESVTEQDSKDSTYSLSSTLTLSKADYEKHKVYACEVTHQGLSSPVTKSFNRGEC
For B1, in test [1], the ECM binding vs Control Ab (pH 5.8) (fold vs Control Ab) was found to be 41.9 and the ECM binding vs Control Ab (pH 7.4) (fold vs Control Ab) is 6.9.

B2: hT4VL.FRv40475 (antibody, human IgG1, kappa)
heavy: B1 heavy
light: B1 light with K24N, S32D, E100H, D101M
Take B2: in test [1], the ECM binding vs Control Ab (pH 5.8) (fold vs Control Ab) was found to be 49 and the ECM binding vs Control Ab (pH 7.4) (fold vs Control Ab) was found to be 3.84.

B3: hT4VL.FRv40479 (antibody, human IgG1, kappa)
heavy: B1 heavy
light: B1 light with R33K, R35E, E100H, D101M
In test [1], B3 yielded an ECM binding vs Control Ab (pH 5.8) (fold vs Control Ab) of 18.4 and an ECM binding vs Control Ab (pH 7.4) (fold vs Control Ab) of 1.9.

B4: hT4VL.FRv40500 (antibody, human IgG1, kappa)
heavy: B1 heavy
light: B1 light with D101P
In test [1], B4 displayed an ECM binding vs Control Ab (pH 5.8) (fold vs Control Ab) of 60 and an ECM binding vs Control Ab (pH 7.4) (fold vs Control Ab) of 7.03.

B5: hT4VL.FRv40551 (antibody, human IgG1, kappa)
heavy: B1 heavy
light: B1 light with L2I, V3Q, N31E, R33S, Y97F, E100Q, D101P
On to B5, for which the ECM binding vs Control Ab (pH 7.4) (ratio vs Control Ab) in test [2] was found to be 2.19. The ECM binding vs Control Ab (pH 5.8) (ratio vs Control Ab) in test [3] came to 24.1.

B6: hT4VL.FRv40477 (antibody, human IgG1, kappa)
heavy: B1 heavy
light: B1 light with N31E, R33K, E100H, D101M
As to B6, in test [1], the ECM binding vs Control Ab (pH 5.8) (fold vs Control Ab) was 30.4 and the ECM binding vs Control Ab (pH 7.4) (fold vs Control Ab) came to 3.73.

B7: hT4VL.FRv40559 (antibody, human IgG1, kappa)
heavy: B1 heavy
light: B1 light with L2I, V3Q, S32D, R33K, Y97F, D101P
With B7, the ECM binding vs Control Ab (pH 7.4) (ratio vs Control Ab) in test [2] stood at 2.4. The ECM binding vs Control Ab (pH 5.8) (ratio vs Control Ab) in test [3] came to 41.9.

B8: hT4VL.FRv40552 (antibody, human IgG1, kappa)
heavy: B1 heavy
light: B1 light with L2I, V3Q, N31E, R33V, Q95Y, D101P
Consider B8, for which the ECM binding vs Control Ab (pH 7.4) (ratio vs Control Ab) in test [2] was found to be 2.02. Also, in test [3], the ECM binding vs Control Ab (pH 5.8) (ratio vs Control Ab) was found to be 24.

B9: hT4VL.FRv40478 (antibody, human IgG1, kappa)
heavy: B1 heavy
light: B1 light with R33K, T34D, E100H, D101M
On to B9, for which, in test [1], the ECM binding vs Control Ab (pH 5.8) (fold vs Control Ab) came to 18.6 and the ECM binding vs Control Ab (pH 7.4) (fold vs Control Ab) stood at 3.41.

B10: hT4VL.FRv40541 (antibody, human IgG1, kappa)
heavy: B1 heavy
light: B1 light with L2I, V3Q, N31E, R33K, Q95H, D101P
Take B10: the ECM binding vs Control Ab (pH 5.8) (ratio vs Control Ab) in test [3] is 20.5.

B11: hT4VL.FRv40542 (antibody, human IgG1, kappa)
heavy: B1 heavy
light: B1 light with L2I, V3Q, N31E, R33K, Q95Y, D101P
B11: the ECM binding vs Control Ab (pH 7.4) (ratio vs Control Ab) in test [2] is 2.64. For the same molecule, the ECM binding vs Control Ab (pH 5.8) (ratio vs Control Ab) in test [3] is 38.5.

B12: hT4VL.FRv40549 (antibody, human IgG1, kappa)
heavy: B1 heavy
light: B1 light with L2I, V3Q, N31E, R33S, Q95Y, E100Q, D101P
B12: in test [2], the ECM binding vs Control Ab (pH 7.4) (ratio vs Control Ab) was 2.58. Besides, in test [3], the ECM binding vs Control Ab (pH 5.8) (ratio vs Control Ab) was found to be 27.8.

B13: hT4VL.FRv40544 (antibody, human IgG1, kappa)
heavy: B1 heavy
light: B1 light with L2I, V3Q, N31E, R33K, Y97F, D101P
B13: the ECM binding vs Control Ab (pH 7.4) (ratio vs Control Ab) in test [2] was 2.86. In addition, in test [3], the ECM binding vs Control Ab (pH 5.8) (ratio vs Control Ab) was 33.

B14: hT4VL.FRv40472 (antibody, human IgG1, kappa)
heavy: B1 heavy
light: B1 light with S32D, T34D, E100H, D101M
In the case of B14, in test [1], the ECM binding vs Control Ab (pH 5.8) (fold vs Control Ab) was 10 and the ECM binding vs Control Ab (pH 7.4) (fold vs Control Ab) was determined as 1.97.

B15: hT4VL.FRv40474 (antibody, human IgG1, kappa)
heavy: B1 heavy
light: B1 light with S32D, R35S, E100H, D101M
In test [1], B15 showed an ECM binding vs Control Ab (pH 5.8) (fold vs Control Ab) of 25.9 and an ECM binding vs Control Ab (pH 7.4) (fold vs Control Ab) of 2.69.

B16: hT4VL.FRv40547 (antibody, human IgG1, kappa)
heavy: B1 heavy
light: B1 light with L2I, V3Q, N31E, R33S, Y97F, D101P
Take B16: the ECM binding vs Control Ab (pH 7.4) (ratio vs Control Ab) in test [2] was found to be 1.51. The ECM binding vs Control Ab (pH 5.8) (ratio vs Control Ab) in test [3] turned out to be 21.1.

B17: hT4VL.FRv40543 (antibody, human IgG1, kappa)
heavy: B1 heavy
light: B1 light with L2I, V3Q, N31E, R33K, Y97E, D101P
Consider B17, for which the ECM binding vs Control Ab (pH 7.4) (ratio vs Control Ab) in test [2] came to 2.49. Besides, the ECM binding vs Control Ab (pH 5.8) (ratio vs Control Ab) in test [3] stood at 32.

B18: hT4VL.FRv40558 (antibody, human IgG1, kappa)
heavy: B1 heavy
light: B1 light with L2I, V3Q, S32D, R33K, Y97E, D101P
Take B18: in test [2], the ECM binding vs Control Ab (pH 7.4) (ratio vs Control Ab) was found to be 2.31. Besides, the ECM binding vs Control Ab (pH 5.8) (ratio vs Control Ab) in test [3] is 46.2.

B19: hT4VL.FRv40469 (antibody, human IgG1, kappa)
heavy: B1 heavy
light: B1 light with S32D, R33K, E100H, D101M
B19: in test [1], the ECM binding vs Control Ab (pH 5.8) (fold vs Control Ab) was determined as 33.9 and the ECM binding vs Control Ab (pH 7.4) (fold vs Control Ab) was 3.34.

B20: hT4VL.FRv40553 (antibody, human IgG1, kappa)
heavy: B1 heavy
light: B1 light with L2I, V3Q, N31E, R33V, Y97F, D101P
As for B20, the ECM binding vs Control Ab (pH 7.4) (ratio vs Control Ab) in test [2] is 1.84. Moreover, the ECM binding vs Control Ab (pH 5.8) (ratio vs Control Ab) in test [3] turned out to be 25.8.

B21: hT4VL.FRv40470 (antibody, human IgG1, kappa)
heavy: B1 heavy
light: B1 light with S32D, R33H, E100H, D101M
In test [1], B21 showed an ECM binding vs Control Ab (pH 5.8) (fold vs Control Ab) of 49.6 and an ECM binding vs Control Ab (pH 7.4) (fold vs Control Ab) of 2.85.

B22: hT4VL.FRv40471 (antibody, human IgG1, kappa)
heavy: B1 heavy
light: B1 light with N31E, S32D, E100H, D101M
As to B22, in test [1], the ECM binding vs Control Ab (pH 5.8) (fold vs Control Ab) came out at 18.2 and the ECM binding vs Control Ab (pH 7.4) (fold vs Control Ab) amounted to 2.5.

B23: hT4VL.FRv40550 (antibody, human IgG1, kappa)
heavy: B1 heavy
light: B1 light with L2I, V3Q, N31E, R33S, Y97E, E100Q, D101P
Consider B23, for which the ECM binding vs Control Ab (pH 7.4) (ratio vs Control Ab) in test [2] turned out to be 2.12. Besides, the ECM binding vs Control Ab (pH 5.8) (ratio vs Control Ab) in test [3] is 27.7.

B24: hT4VL.FRv40473 (antibody, human IgG1, kappa)
heavy: B1 heavy
light: B1 light with S32D, R35E, E100H, D101M
In test [1], B24 yielded an ECM binding vs Control Ab (pH 5.8) (fold vs Control Ab) of 15.1 and an ECM binding vs Control Ab (pH 7.4) (fold vs Control Ab) of 1.46.

B25: hT4VL.FRv40476 (antibody, human IgG1, kappa)
heavy: B1 heavy
light: B1 light with N31D, R33K, E100H, D101M
For the molecule B25, in test [1], the ECM binding vs Control Ab (pH 5.8) (fold vs Control Ab) was 17.9 and the ECM binding vs Control Ab (pH 7.4) (fold vs Control Ab) was found to be 2.95.

B26: hT4VL.FRv40548 (antibody, human IgG1, kappa)
heavy: B1 heavy
light: B1 light with L2I, V3Q, N31E, R33S, Q95H, E100Q, D101P
In the case of B26, the ECM binding vs Control Ab (pH 7.4) (ratio vs Control Ab) in test [2] amounted to 1.92. The ECM binding vs Control Ab (pH 5.8) (ratio vs Control Ab) in test [3] amounted to 12.2.

B27: hT4VL.FRv40557 (antibody, human IgG1, kappa)
heavy: B1 heavy
light: B1 light with L2I, V3Q, N31E, K36L, Q95Y, D101P
Turning to B27, the ECM binding vs Control Ab (pH 7.4) (ratio vs Control Ab) in test [2] worked out at 2.65. For the same molecule, the ECM binding vs Control Ab (pH 5.8) (ratio vs Control Ab) in test [3] came to 9.6.

B28: hT4VL.FRv40546 (antibody, human IgG1, kappa)
heavy: B1 heavy
light: B1 light with L2I, V3Q, N31E, R33S, Q95Y, D101P
On to B28, for which the ECM binding vs Control Ab (pH 7.4) (ratio vs Control Ab) in test [2] was 1.54. Further, the ECM binding vs Control Ab (pH 5.8) (ratio vs Control Ab) in test [3] came to 22.3.

B29: hT4VL.FRv40556 (antibody, human IgG1, kappa)
heavy: B1 heavy
light: B1 light with L2I, V3Q, N31E, K36L, Q95H, D101P
Turning to B29, the ECM binding vs Control Ab (pH 7.4) (ratio vs Control Ab) in test [2] was 2.49. In test [3], the ECM binding vs Control Ab (pH 5.8) (ratio vs Control Ab) is 8.3.

B30: hT4VL.FRv40545 (antibody, human IgG1, kappa)
heavy: B1 heavy
light: B1 light with L2I, V3Q, N31E, R33S, Q95H, D101P
Regarding B30, the ECM binding vs Control Ab (pH 7.4) (ratio vs Control Ab) in test [2] came out at 1.28. Besides, the ECM binding vs Control Ab (pH 5.8) (ratio vs Control Ab) in test [3] was 8.6.

B31: hT4VL.FRv40555 (antibody, human IgG1, kappa)
heavy: B1 heavy
light: B1 light with L2I, V3Q, N31E, R35S, Q95Y, D101P
In the case of B31, the ECM binding vs Control Ab (pH 7.4) (ratio vs Control Ab) in test [2] worked out at 1.98. For the same molecule, the ECM binding vs Control Ab (pH 5.8) (ratio vs Control Ab) in test [3] worked out at 19.5.

B32: hT4VL.FRv40554 (antibody, human IgG1, kappa)
heavy: B1 heavy
light: B1 light with L2I, V3Q, N31E, R35S, Q95H, D101P
Take B32: in test [2], the ECM binding vs Control Ab (pH 7.4) (ratio vs Control Ab) was found to be 1.15. In test [3], the ECM binding vs Control Ab (pH 5.8) (ratio vs Control Ab) amounted to 7.2.
